Results published in US20140056895 (published 2014).
Where two headings read alike, the source gives them in different places.

What was measured:
Test in all cases: SPR
HER2 [1] = biological target: T1, HER2 (human, UniProt P04626)
HER2 [2] = biological target: T1, HER2; remark: listed apart in the source
HER2 [3] = biological target: T1, HER2; remark: listed apart in the source

B1: CODV-Ig 301/417 HC10/LC10, HER2 arm (antibody)
chain 1: EVQLVQSGAEVKKPGSSVKVSCKASGGTFSSYAISWVRQAPGQGLEWMGGIIPIFGTANYAQKFQGRVTITADKSTSTAYMELSSLRSEDTAVYYCARAPLRFLEWSTQDHYYYYYMDVWGKGTTVTVSSG[letters of about 450 residues with a human IgG1 Fc not shown]
chain 2: [letters of about 100 residues not shown]GGGGGGGSSELTQDPAVSVALGQTVRITCQGDSLRSYYATWYQQKPGQAPILVIYGENKRPSGIPDRFSGSSSGNTASLTITGAQAEDEADYYCKSRDGSGQHLVFGGGTKLTVLGGGGGRTVAAPSVFIFPPSDEQLKSGTASVVCLLNNFYPREAKVQWKVDNALQSGNSQESVTEQDSKDSTYSLSSTLTLSKADYEKHKVYACEVTHQGLSSPVTKSFNRGEC
Kd (HER2 [1]): 163 pM
Kd (HER2 [2]): 153 pM
Kd (HER2 [3]): 41 pM

B2: CODV-Ig 302/416 HC11/LC11, HER2 arm (antibody)
chain 1: [letters of about 120 residues not shown]GEVQLVQSGAEVKKPGSSVKVSCKASGGTFSSYAISWVRQAPGQGLEWMGGIIPIFGTANYAQKFQGRVTITADKSTSTAYMELSSLRSEDTAVYYCARAPLRFLEWSTQDHYYYYYMDVWGKGTTVTVSSGG[letters of human IgG1 constant region not shown]
chain 2: SSELTQDPAVSVALGQTVRITCQGDSLRSYYATWYQQKPGQAPILVIYGENKRPSGIPDRFSGSSSGNTASLTITGAQAEDEADYYCKSRDGSGQHLVFGGGTKLTVLGGGGGGG[letters of about 100 residues not shown][letters of about 120 residues not shown]
Kd (HER2 [2]): 163 pM
Kd (HER2 [3]): 163 pM

B3: CODV-Fab 418, HER2 arm (antibody)
chain 1: [letters of about 120 residues not shown]GEVQLVQSGAEVKKPGSSVKVSCKASGGTFSSYAISWVRQAPGQGLEWMGGIIPIFGTANYAQKFQGRVTITADKSTSTAYMELSSLRSEDTAVYYCARAPLRFLEWSTQDHYYYYYMDVWGKGTTVTVSSGG[letters of human IgG1 constant region not shown]
chain 2: SSELTQDPAVSVALGQTVRITCQGDSLRSYYATWYQQKPGQAPILVIYGENKRPSGIPDRFSGSSSGNTASLTITGAQAEDEADYYCKSRDGSGQHLVFGGGTKLTVLGGGGGGG[letters of about 100 residues not shown][letters of about 120 residues not shown]
Kd (HER2 [3]): 190 pM
